Test results as given in patent publication US20080234193A1.

Legend:
[1] = biological target: human collagen type III (human) (UniProt P02461); assay: collagen-binding ELISA, value related to VWF:Ag
[2] = biological target: human collagen type III (human) (UniProt P02461); assay: collagen-binding ELISA, value related to the rVWF protein
[3] = biological target: human collagen type III (human) (UniProt P02461); assay: collagen-binding ELISA (Technozym VWF:CBA), immobilized human collagen type III

Chain of UniProt P02461 (P02461 154-1221 limits assumed): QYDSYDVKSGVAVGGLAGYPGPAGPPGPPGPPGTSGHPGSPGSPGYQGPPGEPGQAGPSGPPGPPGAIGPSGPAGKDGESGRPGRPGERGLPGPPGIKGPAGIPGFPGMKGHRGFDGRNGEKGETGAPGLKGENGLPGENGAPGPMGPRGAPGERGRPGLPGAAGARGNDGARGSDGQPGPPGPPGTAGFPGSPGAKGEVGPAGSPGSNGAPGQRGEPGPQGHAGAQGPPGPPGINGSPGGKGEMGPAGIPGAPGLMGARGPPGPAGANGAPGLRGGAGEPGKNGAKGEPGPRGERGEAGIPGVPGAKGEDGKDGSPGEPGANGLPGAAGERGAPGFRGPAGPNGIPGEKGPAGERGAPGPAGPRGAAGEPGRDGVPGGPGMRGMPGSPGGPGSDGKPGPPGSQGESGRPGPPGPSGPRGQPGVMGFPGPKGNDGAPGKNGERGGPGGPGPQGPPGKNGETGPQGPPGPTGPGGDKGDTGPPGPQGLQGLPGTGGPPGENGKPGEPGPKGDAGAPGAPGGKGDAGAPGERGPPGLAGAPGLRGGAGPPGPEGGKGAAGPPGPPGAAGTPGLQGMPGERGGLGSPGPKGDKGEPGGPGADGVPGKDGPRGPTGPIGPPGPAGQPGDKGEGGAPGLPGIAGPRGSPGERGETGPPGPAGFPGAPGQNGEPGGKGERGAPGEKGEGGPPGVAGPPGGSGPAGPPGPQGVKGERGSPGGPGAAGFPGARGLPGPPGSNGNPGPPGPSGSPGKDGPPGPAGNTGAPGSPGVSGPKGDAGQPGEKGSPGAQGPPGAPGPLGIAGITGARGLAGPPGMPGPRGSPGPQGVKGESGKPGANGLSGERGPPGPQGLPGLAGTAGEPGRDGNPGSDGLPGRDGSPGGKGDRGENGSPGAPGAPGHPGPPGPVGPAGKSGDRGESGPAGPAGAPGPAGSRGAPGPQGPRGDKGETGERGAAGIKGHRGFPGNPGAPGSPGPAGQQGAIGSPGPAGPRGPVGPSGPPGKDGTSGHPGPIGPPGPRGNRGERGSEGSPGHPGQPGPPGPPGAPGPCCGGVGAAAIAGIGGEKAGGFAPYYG

VWF:CB (U/IUAg) [1]: 1.16 U/IUAg | VWF:CB (U/mg) [2]: 185 U/mg | VWF:CB (U/ml) [3]: 63.5 U/ml
Substance: native rVWF 133P1 (a stretch of the chain, letters omitted)
